Screen size: about 420,000 compounds; about 50,000 (12%) were called active. This list was built around the results that the source calls inconclusive (neither active nor inactive); the mix of calls is not that of the screen. Calls come from the whole dose curve; as a rule, active = well fitted inhibition curve with a large enough effect; inconclusive = small, poorly fitted or top-dose-only effect; inactive = flat fitted curve, though single readings scatter. Potencies of inconclusive entries are left out as doubtful fits.
Assay: qHTS for Inhibitors of human tyrosyl-DNA phosphodiesterase 1 (TDP1): qHTS in cells in presence of CPT; note: nearly all actives have a fitted effect of over 55% in size
Details: chicken DT40 Tdp1-/-;hTDP1 cells + 20 nM CPT, ATP luminescence, 48 h; activity change, negative = growth inhibition: at 46.2 µM (top of the series) unless noted
Outline: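 Chicken DT40 Tdp1-/- cells complemented with human TDP1, 400 cells/well, exposed to compounds plus 20 nM camptothecin for at least 48 h at 37 C; viability read as ATP content by CellTiter-Glo luminescence.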
% is set by controls: 0 for no effect and ±100 for the full control effect; potency is the fitted concentration of half-maximal effect; tags give direction and shape of the fitted curve.

Row | Structure (SMILES) | Potency | activity change, negative = growth inhibition
1 | Nn1c(Nc2ccccc2)nc2sc3c(c2c1=O)CCCC3 | inconclusive [inhibitor, single point] | –
2 | CN(C)C(=O)C(Sc1ccc(S(=O)(=O)N2CCCC2)cn1)c1ccccc1 (stereo unspecified) | inconclusive [inhibitor, single point] | –
3 | CC1CCN(CC(=O)Nc2ccc(S(=O)(=O)NC3CC3)cc2)CC1 | – | inactive: -13.5%
4 | CCOc1cc(N2CCOCC2)c(OCC)cc1NC(=O)CC12CC3CC(CC(C3)C1)C2 | active: 13 µM | –
5 | COc1ccc(OC)c(-c2nc3c(C#N)c[nH]n3c2NC2CCCCC2)c1 | inconclusive [inhibitor, single point] | –
6 | CN(CC(=O)NCc1ccco1)S(=O)(=O)c1ccc2c(c1)n(C)c(=O)c(=O)n2C | – | inactive: -15.3%
7 | CCNC(=O)C1(C)CCCN(Cc2ccc(-c3ccccc3)o2)C1 (stereo unspecified) | active: 23.1 µM | –
8 | COc1ccc(/C=N/c2c(-c3ccco3)nc3ccccn23)cc1OC | inconclusive [inhibitor, partial curve] | –
9 | Cc1cc(C(C)(C)C)oc1C(=O)N(CC(=O)NC1CCCC1)Cc1ccc(Cl)cc1 | active: 9.2 µM | –
10 | COc1ccc(C2=NN(CC(=O)NCC(OC)OC)C(=O)CC2)cc1 | – | inactive: -1.87%
11 | CCC12CN3CC(CC)(CN(C1)C3c1c(O)ccc3ccccc13)C2=O (stereo unspecified) | – | inactive: -3.11%
12 | CCCCCCSc1cccc(-c2nc3ccc(Cl)cn3c2NCc2ccccc2)c1 | active: 20.6 µM | –
13 | CCOc1cc(C)c(-c2onc(C(F)(F)F)c2-c2csc(C)n2)c(O)c1 | inconclusive [inhibitor, single point] | –
14 | CC1C=CCC2C(=O)N(c3cccc(C(=O)Nc4ccc(Br)cc4)c3)C(=O)C12 (stereo unspecified) | – | inactive: -27.7%
15 | CCOC(=O)c1cc(=O)c2c([N+](=O)[O-])ccc(OC)c2o1 | – | inactive: 1.46%
16 | O=C(N/N=C/c1cccc(C(F)(F)F)c1)c1cc2c(s1)-c1ccccc1CC2 | inconclusive [inhibitor, single point] | –
17 | CC(=O)Nc1ccc(NC(=O)C(C)OC(=O)CCc2c[nH]c3ccccc23)cc1 (stereo unspecified) | inconclusive [inhibitor, single point] | –
18 | COc1cccc(NC(=O)Nc2nnc(-c3ccccc3SCc3ccccc3)s2)c1 | inconclusive [inhibitor, single point] | –
19 | c1cc2[nH]snc2c2nc(C3CC3)nc12 | active: 18.4 µM | –
20 | CC1CCC(C(C)C)C(OC(=O)CSc2nc(N)cc(=O)[nH]2)C1 (stereo unspecified) | inconclusive [inhibitor, partial curve, poor fit] | –
21 | O=S(=O)(C/C(=C/CO)S(=O)(=O)c1ccccc1)c1ccccc1 | active: 0.82 µM | –
22 | COc1ccc(CNC(=O)[C@H](C)NC(=O)C2CCN(S(=O)(=O)c3ccc(F)cc3)CC2)cc1 | – | inactive: -1.64%
23 | O=C(Nc1cccc(Cl)c1)Nc1ccc(Br)cc1F | active: 20.6 µM | –

Row | Structure (SMILES) | Potency | activity change, negative = growth inhibition
24 | CN(C)c1ccc(CNC(=O)C2CCCN(S(=O)(=O)c3ccc4c(c3)oc(=O)n4C)C2)cc1 (stereo unspecified) | inconclusive [inhibitor, partial curve] | –
25 | COc1ccc(CCNC(=O)C(=O)NCC(c2ccc3c(c2)OCO3)N2CCOCC2)cc1 (stereo unspecified) | inconclusive [inhibitor, single point] | –
26 | COc1ccc(NC(=O)CCCNC(=O)c2ccc(Cl)cc2)cc1S(=O)(=O)N1CCCCC1 | inconclusive [inhibitor, single point] | –
27 | O=C(CCN1C(=O)NC2(CCCC2)C1=O)Nc1ccc(Sc2ccc(Br)cc2)cc1 | inconclusive [inhibitor, partial curve] | –
28 | CC1=C(C(=O)Nc2ccc(Cl)cc2)C(c2ccccc2C)n2ncc(C(=O)Nc3ccc(C)cc3)c2N1 (stereo unspecified) | active: 7.31 µM | –
29 | CSc1nnc2c(n1)OC1(Nc3ccccc3-2)C(=O)Nc2ccccc21 (stereo unspecified) | inconclusive [inhibitor, single point] | –
30 | CC(C)CCNC(=O)C(c1ccco1)N(C(=O)Cn1nnc2ccccc21)c1ccc2c(c1)OCO2 (stereo unspecified) | inconclusive [inhibitor, single point] | –
31 | Cc1cc(C)n(CCCN2CCC(C(=O)Nc3cccc(-c4cccc(F)c4)c3)CC2)n1 | inconclusive [inhibitor, single point] | –
32 | COc1ccc(C(=O)Nc2c(C)cc(C)cc2C)cc1OC | inconclusive [inhibitor, single point] | –
33 | CC(C)Oc1ccc(S(=O)(=O)N2CCOCC2)cc1NC(=O)CC1CCCC1 | inconclusive [inhibitor, single point] | –
34 | COc1ccc(-n2cc(-c3ccccc3)c3c(NC4CCCCC4)ncnc32)cc1 | inconclusive [inhibitor, partial curve, poor fit] | –
35 | CS(=O)(=O)Nc1ccccc1C(=O)Nc1cc(Cl)cc(Cl)c1 | active: 18.4 µM | –
36 | CCOc1cccc(NC(=O)c2ccc(S(=O)(=O)N3CCCC3)cc2)c1 | – | inactive: -8.47%
37 | CCOC(=O)C1=C(C)Nc2ccccc2N=C1NC(=O)C1CCN(C(=O)c2ccccc2C)CC1 | inconclusive [inhibitor, partial curve] | –
38 | COc1cccc(C(=O)NCCSc2c(C)[nH]c3ccccc23)c1OC | inconclusive [inhibitor, single point] | –
39 | CCC(=O)Nc1ccc(C(=O)NNC(=O)Cc2ccccc2)cc1 | – | inactive: 3.43%
40 | COc1ccc(CC(=O)NCc2ccc(F)cc2)cc1S(=O)(=O)N1CCOCC1 | – | inactive: -27.3%
41 | Cc1onc(-c2ccccc2Cl)c1C(=O)NC(=S)Nc1ccc(C(C)C)cc1 | – | inactive: -22.3%
42 | O=C(Nc1cc(F)ccc1F)N1CCC(CN2CCOCC2)CC1 | – | inactive: -4.32%
43 | CC(=O)Nc1ccc(CN2CCCC(CO)(Cc3cccc(Cl)c3)C2)cc1 (stereo unspecified) | inconclusive [inhibitor, single point] | –
44 | CN1CCN(c2ccccc2NC(=O)c2ccc(-c3ccccc3)cc2)CC1 | inconclusive [inhibitor, single point] | –
45 | O=C(O)c1ccccc1S(=O)CCO (stereo unspecified) | – | inactive: -8.28%
46 | COc1ccc(C[C@H]2CN3C(=NC[C@@H]3C(C)C)N2C[C@H](C)NC(=O)c2ccc(C)c(Br)c2)cc1 | active: 29.1 µM | –
